Hit rate of the full screen: of about 48,000 compounds, about 120 (0.25%) were called active. Not shown: some 4% with an inconclusive outcome. The call rests on the fitted dose curve; in most records, active means well fitted activation curve with a large enough effect; inconclusive means small, poorly fitted or top-dose-only effect, or another doubt; inactive means no such curve, though single readings can be large or run the other way. The list shows a part of the results, in another mix than the full data. Where no call is shown, the source filed none.
Potency means the concentration at half of the fitted maximal effect.

A short description of this experiment: Primary qHTS for Identification of Small Molecule Activators of Huntingtin-Antisense Promoter Activity. Further: nearly all actives have a fitted effect of over 55% in size. As to conditions: HEK293 HTT-AS promoter firefly luciferase reporter, 24 h; activity change, positive = activation: at 57.5 µM (top of the series), percent change from vehicle, -100% = no light. The text has this:
Assay Provider: Russell L. Margolis M.D.
Department Neurology, Johns Hopkins University School of Medicine, Baltimore, MD
Huntington's Disease (HD) is a neurodegenerative disorder caused by a CAG repeat expansion in exon 1 of huntingtin (HTT). While there are currently no disease-modifying treatments for HD, recent efforts have focused on development of nucleotide-based therapeutics to lower HTT expression. As an alternative to siRNA or oligonucleotide methods, we hypothesized that suppression of HTT expression might be accomplished by small molecules that either (1) directly decrease HTT expression by suppressing HTT promoter activity or (2) indirectly decrease HTT expression by increasing the promoter activity of HTT-AS, the gene antisense to HTT that appears to inhibit expression of HTT.
We developed and employed a high throughput screen for modifiers of HTT and HTT-AS promoter activity using luminescent reporter HEK293 cells; of the 52,041 compounds tested, we identified 898 replicable hits. We used a rigorous stepwise approach to assess compound toxicity and the capacity of the compounds to specifically lower huntingtin protein in 5 different cell lines, including HEK293 cells, HD lymphoblastoid cells, mouse primary neurons, HD iPSCs differentiated into cortical-like neurons, and HD hESCs. We found no compounds which were able to lower huntingtin without lowering cell viability in all assays, though the potential efficacy of a few compounds at non-toxic doses could not be excluded.
SEQUENCE No. (1, 2, 3, etc.); […] (e.g., Cells, Incubation, Reagent, etc.); VALUE and DESCRIPTION.
1; Reagent; 4 uL; 2,500 Hek293 luciferase reporter cells per wells
3; Compound; 23 nL; Control inhibitor / compound library
5; Reagent; 2.5 uL; Firefly Luc reagent; Dual-Glo Luciferase Reporter Assay System (Promega)
6; Time; 10 min; room temperature incubation
7; Detection; Luminescence; FLuc
NOTES (numbers refer to sequence above)
1; High-throughput screening, measuring luminescence from a Hek293 luciferase reporter, was performed in 1,536 well white-walled tissue-culture treated plates. 2,500 cells were plated in 4 µL of Opti-MEM per well using a Multidrop Combi Reagent Dispenser (ThermoFisher).
2; Assay plates were cultured for 24 hours.
3; Control inhibitor (PTC124; final concentration of 50 uM) and compound library (at final concentrations of 460 nM - 57.5 uM) were added to the assay plate using the Kalypsis Pintool Robotic System equipped with 1536 pinheads.
4; Cells were then incubated for 24 hours at 37 degrees C prior to luminescence measurements.
5; In all cases, luminescence was measured using the Dual-Glo Luciferase Reporter Assay System (Promega) following the manufacturer's instructions.
6; Room temperature incubation.
7; Luminescence signal was obtained using the PerkinElmer ViewLux plate reader. Results were normalized to vehicle control (0% activity) and zero RLU (-100% activity).
Regarding `O=C(NCCSCc1ccccc1)C1CCN(S(=O)(=O)Cc2ccccc2)CC1`, the activity change, positive = activation came out at 0.671%.
As to `CCc1ccc(CCOc2ccc(CC3SC(=O)NC3=O)cc2)nc1` (stereo unspecified), the Potency entry was “inactive”.
Regarding `COc1ccc(NC(=O)Nc2cc(C(=O)NCc3ccc(C)cc3)ccc2N2CCCC2)cc1`, the “activity change, positive = activation” value is inactive: 6.46%.
Regarding `CCc1ccc(NC(=O)CC2C(=O)N(c3ccc(F)cc3)C(=O)N2Cc2ccc(F)cc2)cc1` (stereo unspecified), the activity change, positive = activation was -18.4%.
For `COc1cc(OC)c2c(C)c(CC(=O)NCc3ccccc3OC)c(=O)oc2c1`, the activity change, positive = activation turned out to be 8.28%.
As for `O=S(=O)(Nc1cccc(-c2ccc(N3CCOCC3)nn2)c1)c1ccc(F)c(C(F)(F)F)c1`, the activity change, positive = activation is 20%.
Consider `COc1ccccc1N1CCN(C(=O)COc2ccccc2C#N)CC1`, for which the activity change, positive = activation was -6.25%.
Take `COc1cc(OC)c2c(C)c(CC(=O)N3CCCCC3)c(=O)oc2c1`: the activity change, positive = activation stood at 6.37%.
For `Cc1cc(=O)n2c(C(=O)Nc3ccc(C)c(C)c3)c(C(=O)Nc3ccccc3)sc2n1`, the activity change, positive = activation was -17.1%.
In the case of `O=C(CSc1nc(-c2ccco2)nc2cc(=O)[nH]n12)Nc1ccccc1Cl`, the activity change, positive = activation was -9.48%.
With `COc1ccc(Cl)cc1NC(=O)c1c(C(=O)Nc2cccc(C)c2C)sc2nc(C)cc(=O)n12`, the activity change, positive = activation is -8.35%.
With `COc1ccc(CNS(=O)(=O)c2cc(C(=O)Nc3cc(Cl)cc(Cl)c3)ccc2F)cc1`, the “activity change, positive = activation” value is inactive: -31%.
`CCc1nn(-c2ccccc2)c2nc(-c3ccccc3OC)c3cc(OC)c(OC)cc3c12`: the activity change, positive = activation is -18.1%.
With `COc1cc(-c2nnc(SCCOc3ccc(Cl)cc3C)o2)cc(OC)c1OC`, the activity change, positive = activation was -4.92%.
For `Cc1ccc(Cl)c2c1N[C@@H](c1ccc(C(=O)O)cc1)[C@H]1CC=C[C@@H]21`, the activity change, positive = activation was -7.35%.
Regarding `COc1ccc(C(CC(=O)Nc2ccc(Br)cn2)N2Cc3ccccc3C2=O)cc1` (stereo unspecified), the activity change, positive = activation was -14.8%.
As to `Cc1nn(CC(=O)NCc2ccc(N(C)C)cc2)c(=O)c2nn(-c3ccccc3)c(C)c12`, the “activity change, positive = activation” value is inactive: 5.45%.
With `CCc1cccc(NS(=O)(=O)c2ccc3c(c2)N(CC(=O)OC)C(=O)CS3)c1`, the activity change, positive = activation was -13.9%.
As for `CC(C)c1ccccc1NC(=O)Cn1cnc2c1c(=O)n(C)c(=O)n2C`, the activity change, positive = activation is -7.54%.
Same read-out and setting: the value for `CCCNC(=O)c1c(NC(=O)c2ccccc2)sc2c1CCC(C(C)(C)C)C2` (stereo unspecified) was inactive: -12.5%; that for `O=C(Nc1cccc(Cl)c1)C1CCCN(c2ncnc3c2nc2n3CCCCC2)C1` (stereo unspecified) was inactive: -20.9%.
On the same count and under the same terms, the value for `CC1Cc2cc(S(=O)(=O)CCC(=O)NCc3ccccc3Cl)ccc2N1C(=O)C1CC1` (stereo unspecified) was -14.6%; that for `COC(=O)c1ccccc1NC(=O)CN1C(=O)COc2ccc(Cl)cc21` was -8.95%.
Take `Cc1ccc2nc(-c3ccc(Cl)s3)c(Nc3ccc4c(c3)OCCO4)n2c1`: the Potency is active: 4.47 µM.
Turning to `CC(=O)N1CCCc2cc(S(=O)(=O)N3CCC(C(=O)Nc4ccc(C)cc4Cl)CC3)ccc21`, the “activity change, positive = activation” value is inactive: -30.5%.
On to `CCOC(=O)c1c(NC(=O)c2cc(-c3ccc(OC)c(OC)c3)on2)sc(C)c1C`, for which the activity change, positive = activation was -10.1%.

Values taken from PubChem BioAssay AID1508624 (National Center for Advancing Translational Sciences (NCATS), 2021).
